From PubChem BioAssay AID1671193 (National Center for Advancing Translational Sciences (NCATS), 2021)
Screen size: about 150,000 compounds; about 180 (0.12%) were called active. This list was built around the results that the source calls inconclusive (neither active nor inactive); the mix of calls is not that of the screen. Calls come from the whole dose curve; as a rule, active = well fitted cell-killing curve with a large enough effect; inconclusive = small, poorly fitted or top-dose-only effect, or effect the other way; inactive = flat fitted curve, though single readings scatter. Where the call is inconclusive, the potency comes from a doubtful curve fit.

Assay: GF-AFC viability counterscreen for inhibitors of alpha-synuclein gene (SNCA) expression; note: nearly all actives have a fitted effect of over 30% in size;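 for activity change, negative = cytotoxicity: 0% = DMSO-treated cells and -100% = medium-only wells without cells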
Conditions: HEK-293-SNCA-luc viability, GF-AFC fluorescence, 24 h; activity change, negative = cytotoxicity: at 57.1 µM (top of the series) unless noted
Procedure, shortened: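 Cytotoxicity counterscreen: after 24 h compound treatment of genome-edited SNCA-luciferase HEK-293 cells, live-cell protease substrate GF-AFC read by fluorescence after 30 min; activity scaled between DMSO (0%) and medium-only (-100%), curves Hill-fitted.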
Potency is the fitted concentration of half-maximal effect; tags give direction and shape of the fitted curve.

Row | SMILES | Potency | activity change, negative = cytotoxicity
1 | COc1cccc(NC(=O)Cn2c(=O)n(-c3ccc(CC(=O)NCC4CCCO4)cc3)c(=O)c3ccccc32)c1 (stereo unspecified) | inconclusive: 2.82 µM [cytotoxic, full curve, poor fit] | –
2 | CSCC[C@@H]1NC(=O)c2cc(NC(=O)Cc3ccc4c(c3)OCC4)ccc2NC1=O | inactive | –
3 | Cc1cnc(C2CC2)n1CCNC(=O)CC1CCCC1 | inconclusive: 7.94 µM [cytotoxic, full curve, poor fit] | –
4 | CCc1cccc(C)c1Nc1c(-c2ccc(N(C)C)cc2)nc2ncccn12 | inconclusive: 44.7 µM [cytotoxic, single point] | –
5 | CC1=C[C@@H](CNC(=O)C2CC2)[C@H](C(C)C)C[C@H]1Cc1nc2ncccc2[nH]1 | – | inconclusive: -31.4% [at 87.6 µM]
6 | O=C1c2c(nc(COc3cccc(F)c3)n2Cc2ccccc2)NCCN1CCOc1ccccc1 | inactive | –
7 | COc1cccc(CNC(=O)Nc2cc(C(=O)NCc3cccc(F)c3)ccc2N2CCCC2)c1 | inconclusive: 3.98 µM [cytotoxic, full curve, poor fit] | –
8 | CN[C@@H]1C[C@H]2O[C@@](C)([C@H]1OC)n1c3ccccc3c3c4c(c5c6ccccc6n2c5c31)C(=O)N[C@H]4O | inconclusive: 0.857 µM [cytotoxic, partial curve, poor fit] | –
9 | Cc1ccc(C(=O)N2CCC(C(=O)N3CCC(c4nc5ncccc5[nH]4)CC3)CC2)cc1 | inactive | –
10 | COc1cccc(N2CC(C(=O)NCc3ccc(C(F)(F)F)cc3)NC2=O)c1 (stereo unspecified) | inconclusive: 3.98 µM [cytotoxic, single point] | –
11 | COc1ccccc1C(=O)N1CCC2(CC1)CN(c1ncccn1)CC2CO (stereo unspecified) | inactive | –
12 | O=C(CN1C(=O)COc2ccc(S(=O)(=O)N3CCCCCC3)cc21)N1CCN(c2ccccc2)CC1 | inconclusive: 11.2 µM [cytotoxic, partial curve] | –
13 | O=C(NC1CCN(C(=O)c2ccc(-c3cccs3)cc2)CC1)c1ccccc1F | – | inactive: -0.53% [at 12.5 µM]
14 | COc1ccc(C(=O)N2CCc3nc(C4CC4)nc(-c4ccc(OC)cc4)c3CC2)cc1 | inconclusive: 11.2 µM [cytotoxic, partial curve, poor fit] | –
15 | COc1ccc(-c2nc(C3CC(=O)N(c4ccc(F)c(Cl)c4)C3)no2)c(C)c1 (stereo unspecified) | inconclusive: 3.16 µM [cytotoxic, single point] | –
16 | CC(C)c1noc(-c2cccn3c(CNC(=O)c4ccccc4Cl)nnc23)n1 | inactive | –
17 | Cc1ncccc1C(=O)N1CCCN(Cc2ccncc2)C(c2ccccc2)CC(=O)NCC1 (stereo unspecified) | inconclusive: 39.8 µM [cytotoxic, single point] | –
18 | CC(=O)N1CCC(N[C@H]2C[C@@H](Cc3cc(CN4CCCCC4)on3)C2(C)C)CC1 | inconclusive: 35.5 µM [cytotoxic, partial curve, poor fit] | –
19 | COc1ccc(-n2c(=O)c(C(=O)NC3CCCC3)nc3cccnc32)cc1 | inactive | –
20 | COc1cccc(Cn2c(=O)c(-c3ccc(Cl)cc3)nc3cnc(N(C)C)nc32)c1 | inconclusive: 3.16 µM [rising, full curve, poor fit] | –
21 | CN(Cc1ccc(-c2ccccc2)cc1)Cc1ccnn1C | inactive | –
22 | COc1ccc(NC(=O)N2CCCC3(CCN(C(=O)c4ccco4)CC3)C2)cc1 | inconclusive: 8.91 µM [cytotoxic, single point] | –

Row | SMILES | Potency | activity change, negative = cytotoxicity
23 | c1cc(-c2cnn3cc(-c4ccc(N5CCNCC5)cc4)cnc23)c2cccnc2c1 | active: 23.8 µM | –
24 | Cc1ccc(NC(=O)CN2C(=O)COc3ccc(S(=O)(=O)NC4CCCC4)cc32)c(Cl)c1 | inconclusive: 22.4 µM [cytotoxic, single point] | –
25 | Cc1ccc(C(=O)c2cn(Cc3ccccc3C)c3nc(C)ccc3c2=O)cc1 | inconclusive: 39.8 µM [cytotoxic, single point] | –
26 | COc1ccc(-c2coc3c2c(C)cc2oc(=O)c(CC(=O)O)c(C)c23)cc1 | inconclusive: 4.47 µM [rising, full curve, poor fit] | –
27 | COc1ccc(S(=O)(=O)N2CCCC(Cn3c(C4CC4)nc4cccnc43)C2)cc1 (stereo unspecified) | inconclusive: 39.8 µM [cytotoxic, single point] | –
28 | CCCCn1c(=O)c(C(=O)NCCc2ccccc2F)nc2cccnc21 | inactive | –
29 | CN(c1ccccc1)c1cc(=O)c2ccnc(-c3cccnc3)c2o1 | inactive | –
30 | O=C(O)c1cc2cn(C3CC3)cc2s1 | inactive | –
31 | CCc1nc(-c2ccc(OC3CCN(C(=O)c4sc(C)nc4C)C3)cc2)no1 (stereo unspecified) | inactive | –
32 | Cc1sc2ccn(CC(C)C)c(=O)c2c1C(=O)N1CCCCC1 | inconclusive: 35.5 µM [cytotoxic, single point] | –
33 | C=C1CCC2C(C)(C)C(O)CCC2(C)C1CCC(C)CCOC(C)=O (stereo unspecified) | inconclusive: 2.61 µM [rising, single point] | –
34 | COc1ccc(CN2CC3(CCN(S(=O)(=O)c4c(C)nn(C)c4C)CC3)C2=O)cc1 | inactive | –
35 | Cc1cccc(CN2CCc3nc(C(=O)NCc4ccccc4)oc3CC2)c1 | inactive | –
36 | CN1C(=O)c2[nH]nc(-c3ccc(F)cc3)c2C1c1cccc(O)c1 (stereo unspecified) | inconclusive: 25.1 µM [cytotoxic, partial curve, poor fit] | –
37 | Cc1cc(N2CCC(c3nccn3Cc3ccccn3)CC2)nc2ccccc12 | inactive | –
38 | CCOc1ccccc1C(=O)N1CCC2(CC1)NC(=O)N(c1ccccc1)N2 | inactive | –
39 | COc1ccc2ccc(OCc3nc(C(=O)NCc4cnc(C)cn4)co3)cc2c1 | inactive | –
40 | COc1c/c(=C2\C=c3ccccc3=N2)[nH]/c1=C\c1[nH]c(C)cc1C | active: 4.74 µM | –
41 | CCOc1ccccc1CNC(=O)C1CCCN(c2nnc(C)c3c(C)n(-c4ccccc4)nc23)C1 (stereo unspecified) | inconclusive: 1.12 µM [cytotoxic, full curve, poor fit] | –
42 | COC(=O)c1ccc(C(=O)OC)c(NC(=O)CN(c2ccccc2)S(=O)(=O)N(C)C)c1 | inconclusive: 31.6 µM [rising, partial curve, poor fit] | –
43 | O=C(CN1CC2CC(C1)[C@H]1CCCC(=O)N1C2)NCCCN1CCCc2ccccc21 (stereo partly specified) | inactive | –
44 | CCOCCCn1c(=N)c(C(=O)NCc2cccnc2)cc2c(=O)n3ccccc3nc21 | inconclusive: 25.1 µM [rising, partial curve] | –

Row | SMILES | Potency | activity change, negative = cytotoxicity
45 | CC(C)NC(=O)c1cc(-c2ccc(Cl)nc2)nc2c1cnn2C | inactive | –
46 | Cc1c(C(=O)N2CCC(C)CC2)c(S(=O)(=O)N(Cc2ccccc2)C(C)(C)C)c(C)n1C | inconclusive: 8.91 µM [cytotoxic, full curve, poor fit] | –
47 | COCCC(=O)N1CCC2(CC1)CC(Cc1nc(-c3ccncc3)no1)CCO2 (stereo unspecified) | inconclusive: 31.6 µM [cytotoxic, single point] | –
48 | O=C(CN1C(=O)COc2ccc(S(=O)(=O)NC3CCCC3)cc21)NCc1ccc(Cl)cc1 | inconclusive: 14.1 µM [cytotoxic, partial curve, poor fit] | –
49 | O=C(Cc1ccc(F)cc1)Nc1ccc2ncnc(N3CCCCC3)c2c1 | inactive | –
50 | COc1ccc(C(=O)NCCn2cc(SCc3c(F)cccc3Cl)c3ccccc32)cc1 | inconclusive: 39.8 µM [cytotoxic, single point] | –
51 | O=C(NCC1CC1)c1nc2cccnc2n(C2CC2)c1=O | inactive | –
52 | Cc1ccc(NC(=O)c2sc3nc(-c4cccs4)ccc3c2N)cc1F | inconclusive: 17.8 µM [rising, partial curve, poor fit] | –
53 | Cc1cc(=O)n(CC(=O)Nc2ccccc2C)c(N2CCc3ccccc3C2)n1 | inconclusive: 11.2 µM [cytotoxic, partial curve] | –
54 | Cc1ccc(S(=O)(=O)NC[C@H]2O[C@@H](CC(=O)N3CCN(c4ccccn4)CC3)[C@H](O)[C@@H]2O)cc1 | inactive | –
55 | O=C1[C@@H]2C[C@@H](CN2Cc2ccccc2)Oc2ccccc2N1CC1CC1 | inactive | –
56 | O=C1N(Cc2ccccn2)C[C@H]2CN(Cc3ccc(C(F)(F)F)cc3)CCN12 | inactive | –
57 | CCCCN1CC(c2nc3ccccc3n2CCCCOc2cc(C)cc(C)c2)CC1=O (stereo unspecified) | inconclusive: 22.4 µM [cytotoxic, single point] | –
58 | COCCCNC(=O)CN1C(=O)c2cccnc2Sc2ccccc21 | inconclusive: 5.62 µM [cytotoxic, full curve] | –
59 | COc1ccc(NC(=O)c2c(NC(=O)C(F)(F)F)sc3c2CCCCC3)cc1 | inconclusive: 7.08 µM [rising, single point] | –
60 | COc1ccc(Cn2ccc3nc(C)c(C(=O)N4CCN(c5cccc(OC)c5)CC4)cc3c2=O)cc1 | inconclusive: 0.355 µM [rising, full curve] | –
61 | CCCCC1CCC(C(=O)N2CC(=O)Nc3ccc(C)cc3C2c2ccc(F)cc2)CC1 (stereo unspecified) | inconclusive: 17.8 µM [cytotoxic, partial curve, poor fit] | –
62 | CS(=O)(=O)N(Cc1ccccc1)c1ccc(C(=O)Nc2cccc(Cl)c2)cc1 | active: 6.31 µM | –
63 | COc1ccc(C(=O)N[C@@H]2CN(Cc3ccccc3)C[C@H]2CO)cn1 | inconclusive: 22.4 µM [cytotoxic, partial curve, poor fit] | –
64 | Cc1ccc2c(c1)c(=O)c1ccccc1n2CCCC(=O)Nc1ccc(C)c(F)c1 | inconclusive: 15.8 µM [rising, partial curve, poor fit] | –
65 | CCCNC(=O)N1CC[C@@H](CC(=O)O)[C@@H](CC2=NCCc3cc(OC)ccc32)C1 | inactive | –
66 | COc1ncccc1CN1CCCn2nc(C)c(-c3ccccc3C(C)C)c21 | inconclusive: 31.6 µM [cytotoxic, single point] | –
